Over roughly 33,000 sequences, “E-score (dimensionless, -0.5 to 0.5)” has its median near -0.058; the highest 2% begin near 0.35. The list shows a part of the results.

This test concerns MvaT. Kind of test: PBM 8-mer E-score (mean of HK and ME arrays) (E-score (dimensionless, -0.5 to 0.5)); higher = stronger relative binding preference; most listed sequences are background and not binding sites. The procedure, abridged:
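Full-length P. aeruginosa MvaT, with glutathione S-transferase fused to its N-terminus (cloned into pTH6838 by isothermal assembly), was tested by protein binding microarray using a previously described protocol. Two universal double-stranded 60-mer arrays (ME and HK) were used, each with a constant 25-mer primer region and a variable 35-mer region covering all 8-mers. The rank-based 8-mer E-score (-0.5 to 0.5) is the mean of the two arrays, parsed with a custom Python script.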
As for AGGGCGTC, the “PBM 8-mer E-score” value is -0.316. In the case of ATGGGCCC, the “PBM 8-mer E-score” value was -0.256. The same measure for CAACGGAC: -0.0222; for AGACTTCA: 0.0386. As to AATAAGAA, the “PBM 8-mer E-score” value stood at 0.318. AAAGAATA: the “PBM 8-mer E-score” value is 0.269. The figure for GTCCTCTA is -0.173.

TCCCGACA: the “PBM 8-mer E-score” value is -0.0439. The same measure for ATGTTAAT: 0.39.

As for GAGGGACA, the “PBM 8-mer E-score” value is -0.27. Consider TCCGTTCA, for which the “PBM 8-mer E-score” value is -0.122.

Turning to AGAGTACG, the “PBM 8-mer E-score” value was -0.08.

With ATTCTAAA, the “PBM 8-mer E-score” value came out at 0.284. The same measure for CCAGCCGC: -0.0764; for AGATTAAA: 0.178; for CCATTGAC: -0.0593.

Turning to CGAAGGAA, the “PBM 8-mer E-score” value is -0.155. The figure for AACGTAAT is 0.166. The figure for AGGCTCGC is -0.403; for ATCGGAGC it is -0.143. ATAAGGGA: the “PBM 8-mer E-score” value turned out to be 0.0576. The figure for AAGGCCGT is -0.185. Take ATTACCTG: the “PBM 8-mer E-score” value came to 0.103. For CCGCAGCA, the “PBM 8-mer E-score” value is -0.264. The figure for CTTTTAAA is 0.361; for ACGCTTGA it is -0.0657; for AGGCGCCG it is -0.225.

Take AGTGTTAC: the “PBM 8-mer E-score” value stood at 0.172. Turning to ACCGCATG, the “PBM 8-mer E-score” value is -0.0413.

For the sequence AAGGCTTA, the “PBM 8-mer E-score” value is -0.0599.

Regarding AAATGGCA, the “PBM 8-mer E-score” value came to 0.135. The figure for GTAGTATA is 0.319; for CAAAGGGC it is -0.176.

As for ATGGGACG, the “PBM 8-mer E-score” value was -0.134. The same measure for CATGCTCG: -0.173; for CGCGCAAC: -0.0927; for AATCTAAT: 0.214.

CGGCGGAA: the “PBM 8-mer E-score” value is -0.176. For GTGTGTTA, the “PBM 8-mer E-score” value worked out at 0.219. The same measure for ATCCGTGC: -0.0813; for ATGGACCA: -0.0532; for ATCAATAG: 0.172.

As for CTCCCTCA, the “PBM 8-mer E-score” value was -0.243.

Take AACCCTTC: the “PBM 8-mer E-score” value was -0.178. The figure for AATTCGTC is 0.0806; for CTAGAGTA it is 0.132; for ACTATCCA it is 0.184. The same measure for AAATGGGG: -0.107.

On to ATAGGACA, for which the “PBM 8-mer E-score” value amounted to 0.0602.

As to CCACGTTA, the “PBM 8-mer E-score” value is 0.014.

Turning to ACACAAAC, the “PBM 8-mer E-score” value worked out at 0.128.

With GCCCTGGA, the “PBM 8-mer E-score” value is -0.166. Turning to CCCGATGC, the “PBM 8-mer E-score” value was -0.187.

For the sequence AGAACCCA, the “PBM 8-mer E-score” value is -0.0864. In the case of ACACCAGT, the “PBM 8-mer E-score” value was -0.0729.

CCCAGACA: the “PBM 8-mer E-score” value was -0.144. As to CCACGAGA, the “PBM 8-mer E-score” value was -0.207. Consider AGTCCTCC, for which the “PBM 8-mer E-score” value was -0.383. The figure for GAGGACCA is -0.315. The same measure for TATTTGGA: 0.11. For the sequence GGCTATGA, the “PBM 8-mer E-score” value is -0.155. The figure for CATAGGAA is 0.0569; for GCACTGAC it is -0.075. Turning to AGTCTTCC, the “PBM 8-mer E-score” value is -0.0423. As for CGGATGCA, the “PBM 8-mer E-score” value was -0.169. On to GGTGAGAC, for which the “PBM 8-mer E-score” value is -0.062. As for GAATTTGC, the “PBM 8-mer E-score” value came out at 0.153.

Turning to CCCCGTCA, the “PBM 8-mer E-score” value is -0.0663.

Turning to ACGTATAA, the “PBM 8-mer E-score” value came to 0.299. The figure for ACCCCTAG is -0.269.

ATTCCAGC: the “PBM 8-mer E-score” value was -0.0792. As to CGACAATC, the “PBM 8-mer E-score” value is -0.0278. The figure for AGGAAAGC is -0.233.

With ACTAAAGT, the “PBM 8-mer E-score” value stood at 0.216. ATAGGCGC: the “PBM 8-mer E-score” value was -0.0551. The figure for CTTGAAGC is -0.22. As for GAACTCAC, the “PBM 8-mer E-score” value is -0.0819. The same measure for CACCGTGC: -0.175. The figure for CCGCGGAA is -0.0513; for CCCGGACC it is -0.337; for GCCGTGCC it is -0.167.

On to TCAGTACA, for which the “PBM 8-mer E-score” value was 0.0419.

As for AATACCGT, the “PBM 8-mer E-score” value came to 0.0534. The figure for CTCTGACA is -0.209; for CTACGAAA it is 0.0454; for CATAAAGA it is 0.134.

The values above are taken from the supplement of paper PMC4466236.
